Measurements published in PubChem BioAssay AID1466 (National Center for Advancing Translational Sciences (NCATS), 2008).
In all, about 200,000 compounds went through this assay and about 10 (0.005%) were called active. The shares of active, inactive and inconclusive entries below differ from those in the screen. Calls follow the shape of the dose curve; as a rule, active = well fitted inhibition curve with a large enough effect; inconclusive = small, poorly fitted or top-dose-only effect, or effect the other way, or another doubt; inactive = no such curve, though single readings can be large or run the other way. Potencies of inconclusive entries are left out as doubtful fits.

target: Lysosomal alpha-glucosidase (Homo sapiens) (UniProt P10253); test: qHTS Assay for Inhibitors of Human alpha-Glucosidase as a Potential Chaperone Treatment of Pompe Disease; details: purified human GAA, 4-MU-alpha-glucoside fluorescence; activity change, negative = inhibition: at 76.9 µM (top of the series) unless noted;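 as to activity change, negative = inhibition: plate controls were uninhibited enzyme wells for no effect and no-enzyme background for full effect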
Procedure, shortened: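 Read-out is 4-methylumbelliferone fluorescence (Ex 365/Em 440 nm) after NaOH/glycine stop at pH 10. Enzyme 4 nM, substrate 400 uM, pH 5.0 citrate buffer, 20 min room temperature; AC50 from Hill-equation concentration-response.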
Potency is read from the fitted curve at half-maximal effect; tags tell the direction and shape of the fitted curve.

Structure (SMILES)	Potency	activity change, negative = inhibition
COc1ccc(NC(=O)c2oc3ccccc3c2NC(=O)c2ccco2)cc1	inconclusive [inhibitor, full curve]	
COCCCN(C(C)=O)c1nc(-c2ccccc2)cs1	inconclusive [inhibitor, single point]	
c1ccc(-n2nnnc2SCc2ccccn2)cc1	inconclusive [inhibitor, partial curve]	
CCOC(=O)C1CCCN(C(=O)Cc2c(F)cccc2Cl)C1 (configuration not stated)	inconclusive [inhibitor, single point]	
S=c1[nH]nc(-c2ccccc2Cl)n1Cc1ccccc1	inconclusive [inhibitor, single point]	
CC(=C\c1ccccc1)/C=C1/SC(=O)N(CCCC(=O)Nc2ccc(C(=O)O)cc2)C1=O	inconclusive [inhibitor, single point]	
C/C(=N\Nc1nc(N2CCOCC2)nc(N2CCOCC2)n1)c1cccs1	inconclusive [inhibitor, full curve, poor fit]	
c1ccc(-c2noc(-c3cccnc3)n2)nc1	inactive	
Fc1ccc(Br)cc1C1C=C(c2ccc(Br)cc2)Nc2ncnn21 (configuration not stated)	inconclusive [inhibitor, full curve]	
Cn1cc(CN2CCc3c([nH]c4ccccc34)C2C2CCCCC2)cn1 (configuration not stated)		inconclusive: 15.4% [activator]
N#Cc1c(N)sc2c1CCN(C(=O)OCc1ccccc1)C2	inconclusive [inhibitor, partial curve]	
COc1ccc(NC2=NCCC(=O)N2Cc2cccs2)cc1	inconclusive [inhibitor, full curve, poor fit]	
CCN1c2ccccc2NC2C1C(C(C)=O)C(=O)N2c1ccc(Cl)cc1 (configuration not stated)	inactive	
CC1(C)CC(=O)C(C=NCCN2CCN(C(=S)Nc3ccc(F)cc3)CC2)=C(O)C1	inconclusive [activator, full curve, poor fit]	
Cc1ccc(C)c(CSc2nc3[nH]ncc3c(=O)[nH]2)c1	inconclusive [inhibitor, partial curve]	
O=S(=O)(c1ccccc1)c1ccc(NCc2ccco2)cc1	inconclusive [inhibitor, full curve, poor fit]	
COc1ccc(CCN2C(=O)CC(NCc3ccc4c(c3)OCO4)C2=O)cc1OC (configuration not stated)	inconclusive [inhibitor, single point]	
Cc1cc(NC(=O)c2cc(-c3cccnc3)nc3c(C)c(C)ccc23)no1	inconclusive [inhibitor, partial curve]	
O=C(c1ccco1)N1CCN(Cc2cn[nH]c2-c2ccc(F)cc2F)CC1	inconclusive [inhibitor, single point]	
Cc1ccc(NC(=O)Cn2c(=O)n(Cc3ccco3)c(=N)c3c4c(sc32)COC(C)(C)C4)cc1	inconclusive [inhibitor, single point]	
CN(CC(=O)Nc1cccc2ccccc12)c1ccc(S(=O)(=O)N2CCOCC2)cn1	inconclusive [inhibitor, single point]	
COc1cc(C)c(Cl)cc1S(=O)(=O)NC1CC(C)(C)NC(C)(C)C1		inconclusive: 16.4% [activator]
Cc1nnc(NC(=O)COc2ccc3c(C)cc(=O)oc3c2)s1	inconclusive [activator, single point]	

Structure (SMILES)	Potency	activity change, negative = inhibition
Cc1ccsc1/C=N/Nc1nc2ccccc2[nH]1	inactive	
Cc1ccc(S(=O)(=O)N(C)CCCC(=O)NC(C)(C)C)cc1		inconclusive: 16.3% [activator]
COc1ccc(NC(=O)CSc2cc(C(=O)c3nccn3C)c3ccccc3n2)cc1		inconclusive: 16.2% [activator]
O=C(c1cccnc1)N(Cc1ccccc1)c1ccccc1	inconclusive [inhibitor, single point]	
Cc1occc1-c1nnc(SCC(=O)Nc2ccccc2)n1Cc1ccccc1	inconclusive [inhibitor, single point]	
Cc1ccc(SCCC(=O)N/N=C/c2cccnc2)cc1	inactive	
Cc1ccccc1N1CCN(Cc2c(C#N)c3ccccc3n2C)CC1		inconclusive: -17.7% [inhibitor]
CCCCn1c2nc3ccccc3nc2c2c(=O)n(CCC)cnc21	inconclusive [activator, partial curve, poor fit]	
COc1ccccc1N(CC(O)Cn1ccnc1C)S(=O)(=O)c1ccc(C)cc1 (configuration not stated)	inconclusive [inhibitor, full curve]	
Cc1ccc(C(=O)CSc2nc(-c3ccccc3)cc(=O)[nH]2)cc1	inconclusive [inhibitor, single point]	
COc1ccc(CN(C(=O)Cc2c[nH]c3ccccc23)C(C(=O)NC2CCCCC2)c2ccc(C)o2)cc1 (configuration not stated)	inconclusive [inhibitor, partial curve, poor fit]	
CN(c1cccc(NC(=O)CN(c2ccc(F)cc2)S(C)(=O)=O)c1)S(C)(=O)=O		inconclusive: -17.7% [inhibitor]
O=S(=O)(c1cccc(-c2cn3cc(Cl)ccc3n2)c1)N1CCOCC1	inconclusive [inhibitor, partial curve]	
Cc1nc2sc(C(=O)Nc3ccccc3)c(N)c2c(C)c1[N+](=O)[O-]	inconclusive [inhibitor, single point]	
CCOC(=O)C1=C(C)N(C)C(=S)N(C)C1c1ccc(OC)cc1 (configuration not stated)	inconclusive [inhibitor, single point]	
c1ccc2nc(-c3ccc(N4CCOCC4)cc3)ccc2c1	inconclusive [activator, full curve, poor fit]	
O=C(OCC(=O)N1CCN(C(=O)c2ccco2)CC1)c1cc(-c2ccco2)nc2ccccc12	inconclusive [activator, single point]	
O=c1cc(-c2ccccc2)[nH]c2nc3ccccc3n12	inconclusive [activator, partial curve]	
Nc1nc(SCC(=O)c2cc3ccccc3o2)n[nH]1		inconclusive: 15.9% [activator]
COc1ccccc1C(OC(=O)c1cccs1)C(=O)NCc1ccco1 (configuration not stated)	inconclusive [inhibitor, partial curve]	
O=c1c(-c2nc3ccccc3s2)cccn1Cc1ccc(Cl)c(Cl)c1	inconclusive [activator, partial curve]	
Oc1ccccc1N=Cc1ccc[nH]1	inactive	
Brc1ccccc1-c1nnc2sc(Cc3ccccc3)nn12	inconclusive [inhibitor, full curve]	

Structure (SMILES)	Potency	activity change, negative = inhibition
O=C(NCCN=C1NS(=O)(=O)c2ccccc21)c1ccco1	inconclusive [inhibitor, full curve, poor fit]	
Cn1c(SCC(=O)Nc2ccc(F)cc2F)nnc1-c1cccnc1	inconclusive [inhibitor, single point]	
Clc1cccc(Nc2nc(-c3ccncc3)cs2)c1		inconclusive: 16.6% [activator]
Cc1nc(N2CCCCC2)c2c(C)c(C(=O)Nc3cccc(C(F)(F)F)c3)sc2n1	inconclusive [inhibitor, partial curve, poor fit]	
Cc1c(C)c(C)c(CO/N=C/c2cccs2)c(C)c1C	inconclusive [inhibitor, full curve, poor fit]	
Cc1ccc(N(C(=O)c2csnn2)C(C(=O)NC(C)(C)C)c2ccccn2)cc1 (configuration not stated)		inconclusive: 16.9% [activator]
Cn1c(N)c(C(=O)CSc2ccc3c(c2)OCCO3)c(=O)n(C)c1=O	inactive	
CNC(=O)C1CC(=O)N(CCc2ccc(OC)c(OC)c2)C(=Nc2ccc(F)cc2)S1 (configuration not stated)		inconclusive: 15.1% [activator]
COC(=O)c1ccc(OCC(=O)c2ccc(C)c(C)c2)cc1	inconclusive [inhibitor, single point]	
CCOC(=O)CSc1nnc(C)n1N		inconclusive: -16.3% [inhibitor]
Cn1cc([N+](=O)[O-])c(C(=O)N/N=C/c2ccc3c(c2)OCO3)n1		inconclusive: 15.4% [activator]
Cc1cc(O)ccc1N/C=C1\CCCC1=O	inactive	
COc1ccccc1NC(=O)c1[nH]c(C)c(C(C)=O)c1C	inactive	
CCc1nnc(NC(=O)CSc2nnc(-c3ccccc3O)o2)s1		inconclusive: -21.1% [inhibitor]
Cc1ccc(S(=O)(=O)N2CCOCC2)cc1C(=O)N1CCOCC1		inconclusive: -16.7% [inhibitor]
CC(=O)Nc1ccc(S(=O)(=O)Oc2ccc(/C=C3\SC(N)=NC3=O)cc2)cc1	inactive	
CC1(C)CC(=O)c2c(nc3ccccc3c2N)C1	inconclusive [activator, partial curve]	
CCCc1cc(-c2n[nH]c(C)c2-c2ccc(C(=O)OCC)o2)c(O)cc1O	inconclusive [inhibitor, full curve, poor fit]	
COc1ccc(/C=N/Nc2cc(N3CCCC3)nc(N3CCCC3)n2)cc1	inconclusive [inhibitor, partial curve, poor fit]	
Cc1ccc(NC(=O)CN(c2ccc(Cl)cc2)S(=O)(=O)c2cc([N+](=O)[O-])ccc2Cl)cc1	inconclusive [inhibitor, partial curve]	
Cc1ccc(S(=O)(=O)Nc2nc(C)c(C(=O)NNS(=O)(=O)c3ccccc3)s2)cc1	inactive	
